# Reference: PubChem BioAssay AID463173 (ICCB-Longwood Screening Facility, Harvard Medical School, 2010)
# In all, about 52,000 compounds went through this assay and about 4,300 (8.3%) were called active. Cut-off read from the data, not from the text of the source: active = survival mostly below about 52% (no sharp cut-off); inactive = mostly above about 56%. Some of the results follow.
# Tested on: DeltatarO mutant
# Experiment: S. aureus survival, RN4220 and DeltatarO strains – OD600, teichoic acid synthesis inhibitors, primary screen (AID 463173)
# Conditions: S. aureus RN4220 wild type/DeltatarO growth, OD600, 18 h, stronger effect = lower value, screened at 18.75 µg/mL (by protocol)
row,SMILES,survival
1,COc1ccc(Cn2cc(S(=O)(=O)c3ccc(C)cc3)c(=O)c3cc(F)ccc32)cc1,inactive: 70%
2,Cc1nc(-c2ccc(S(=O)(=O)Nc3cc(Cl)ccc3C)cc2)co1,inactive: 90%
3,COc1ccc(-c2nc3scc(CCNS(=O)(=O)c4ccc(Oc5ccccc5)cc4)n3n2)cc1OC,inactive: 120%
4,Cc1ccsc1CCN1C(=O)N(c2ccccc2)C(=O)C1CC(=O)Nc1ccc(Cl)cc1 (stereo unspecified),inactive: 66%
5,O=C(CNC(=O)c1ccccc1)OCc1cc(=O)n2nc(C3CCCCC3)sc2n1,inactive: 90%
6,Cc1ccc2sc(N(Cc3cccnc3)C(=O)CCS(=O)(=O)c3ccccc3)nc2c1C,active: 6%
7,COc1ccc(N2CCN(C(=O)CSc3nc(-c4ccc(C(C)C)cc4)no3)CC2)cc1,inactive: 99%
8,CC(=O)c1cccc(NC(=O)Nc2sc3nc4n(c(=O)c3c2C)CCC(C)CC4)c1 (stereo unspecified),inactive: 92%
9,O=C(NN=c1c(=O)c2ccccc2c1=O)c1ccncc1,inactive: 77%
10,CCN(CC)C(=O)c1sc2c(c1C)c(=O)n(Cc1ccccc1)c(=O)n2Cc1ccccc1C,inactive: 75%
11,Cc1cn2c(=O)cc(COC(=O)c3ccc(NC(=O)c4ccc(F)cc4)cc3)nc2s1,inactive: 96%
12,CCOC(=O)c1ccc(NC(=O)c2cnn3c(=O)c4c(n(CC)c23)CCN(Cc2ccc(OC)cc2)C4)cc1,inactive: 96%
13,COC(=O)c1ccc(Nc2ncnc3c2cnn3C)cc1,inactive: 81%
14,CC1CCN(S(=O)(=O)N2CCC(C(=O)NCc3ccccc3Cl)CC2)CC1,inactive: 81%
15,COc1ccc(CNC(=O)Cc2c(C)c3cc4c(C)coc4cc3oc2=O)cc1OC,inactive: 78%
16,COc1ccc(C2c3[nH]c4ccccc4c3CCN2C(=O)CCC2CCCC2)cc1 (stereo unspecified),inactive: 95%
17,CCN(CC)c1ccc(NC(=O)c2cc(C)nc3c2c(C)nn3-c2ccc(C)cc2)c(C)c1,inactive: 101%
18,CC(Sc1nccn1C)C(=O)Nc1ccccc1C#N (stereo unspecified),inactive: 85%
19,CCOc1ccc(C(=O)Nc2c(C(=O)Nc3ccccc3OC)oc3ccccc23)cc1OCC,inactive: 65%
20,Cc1cc(C)cc(OCCSc2nc3ccc(NC(=O)c4cccs4)cc3s2)c1,inactive: 58%
21,Cc1c(-c2ccccc2)c(=O)oc2ccc(OC(=O)N3CCOCC3)cc12,inactive: 93%
22,O=C(Cn1cc(C(=O)C2CCCCC2)c2ccccc21)Nc1ccccc1Cl,inactive: 76%
23,CC(C)c1nc(NCCO)c2nnn(Cc3ccccc3)c2n1,inactive: 85%

row,SMILES,survival
1,COC(=O)C1=CNC=C(C(=O)OC)C1c1ccc(Cl)cc1,inactive: 88%
2,Clc1ccc(CN2CCN(c3ncnc4sc5c(c34)CCCC5)CC2)cc1Cl,inactive: 107%
3,COc1ccc(CNC(=O)Cc2c(C(=O)O)c(C)cn2C)cc1,inactive: 94%
4,COc1ccc(-c2nc3scc(CCNS(=O)(=O)c4ccc5c(c4)OCCO5)n3n2)cc1OC,inactive: 86%
5,Cc1cc(=O)c2cc(Br)ccc2[nH]1,inactive: 71%
6,Cc1ccc(-c2cn3c(n2)sc2cc(C(=O)NCCCN4CCCCCC4)ccc23)cc1,active: -4%
7,CC(CCc1ccccc1)NC(=O)Cn1c(=O)nc(-c2ccccc2)c2cc(Cl)ccc21 (stereo unspecified),inactive: 80%
8,CCc1ccc2oc(C(=O)N(Cc3ccc(N(C)C)cc3)Cc3ccco3)c(C)c2c1,inactive: 71%
9,CCCN(CCC)C(=O)c1cc2c(=O)n3cccc(C)c3nc2s1,inactive: 56%
10,CC1=C(c2ccc(C)c(C)c2)S(=O)(=O)N=C1N1CCC(C(=O)NC(C)c2ccccc2)CC1 (stereo unspecified),inactive: 84%
11,O=C(O)c1cc2cc3ccccc3nc2s1,inactive: 98%
12,O=C1c2ccccc2-c2onc3c(N4CCN(C5CCCCC5)CC4)cc(NCCO)c1c23,inactive: 59%
13,COCCNc1c(-c2ccc(OC)c(OC)c2)nc2ccc(Cl)cn12,inactive: 79%
14,COCC(=O)N1CCC(n2nnc3cc(F)ccc32)CC1,inactive: 53%
15,COc1ccc2c(C)c(CC(=O)NCCc3ccc(Cl)cc3)c(=O)oc2c1C,inactive: 111%
16,CCOc1ccc(NC(=O)CSC2=Nc3ccccc3C3=NC(CC(=O)NCc4cccs4)C(=O)N23)cc1 (stereo unspecified),inactive: 76%
17,COc1cc(-c2cc(OC)c3c(C)oc(C)c3c(=O)c2)ccc1OC(=O)c1ccc(C)cc1,inactive: 88%
18,Cc1nc(N(C)C2CCCCC2)c2nnn(Cc3ccc(F)cc3)c2n1,inactive: 96%
19,O=C(CSc1n[nH]c(-c2ccccc2Cl)n1)NCCCc1ccccc1,inactive: 76%
20,CCOC(=O)c1cccc(NC(=O)c2ncoc2-c2ccco2)c1,inactive: 102%
21,COc1cc(NC(=O)C(F)(F)F)c(OC)cc1Br,inactive: 84%
22,O=C(O)c1cccc(N(CCO)CCO)c1,inactive: 95%
23,COC(=O)c1ccccc1NC(=O)Cn1cnc2sc(C)c(S(=O)(=O)N3CCC(C)CC3)c2c1=O,inactive: 59%

row,SMILES,survival
1,Cc1nc2ccccn2c(=O)c1NC(=O)c1cccc(F)c1,inactive: 71%
2,CCOc1ccc(C2C(=O)N(C3CCCCCC3)CC(=O)N2Cc2ccccc2)cc1OC (stereo unspecified),inactive: 72%
3,COc1ccc(NC(=O)/C=C\C(=O)N(c2ccc(C(C)C)cc2)C(C(=O)NCc2ccco2)c2ccc(C)cc2)cc1 (stereo unspecified),inactive: 74%
4,Cc1cccc(C(=O)N2CCc3cc(CNC(=O)c4cc5ccccc5[nH]4)ccc32)c1,inactive: 81%
5,CCn1nc(C)c(CCN(C)C(=O)Nc2cccc(Cl)c2C)c1C,inactive: 88%
6,O=S(=O)(c1ccccc1)c1nc(-c2ccccc2Cl)oc1N1CCCCCC1,active: 27%
7,Cc1cc(C)c(S(=O)(=O)NCCS(=O)(=O)N2CCN(c3ccccc3)CC2)c(C)c1,inactive: 94%
8,Cc1ccccc1N(C)S(=O)(=O)c1nnc(NC(=O)c2ccco2)s1,inactive: 94%
9,CCOC(=O)c1cc(-c2ccc(OC)cc2)n(CCC(=O)NCCc2ccccc2)c1C,inactive: 98%
10,COc1cccc(C(=O)NCCc2csc3nc(-c4ccccc4F)nn23)c1OC,inactive: 83%
11,COc1ccc(CCNC(=O)c2ccc3c(c2)sc2nc(-c4ccccc4)cn23)cc1OC,active: 47%
12,Cc1ccc(NC(=O)C2(C)Cc3ccccc3C(=O)O2)c(C)c1 (stereo unspecified),inactive: 105%
13,COc1cccc(C2NC(C(=O)O)Cc3c2[nH]c2ccccc32)c1 (stereo unspecified),inactive: 95%
14,N#C/C(=C\c1ccc(-c2ccccc2)o1)C(=O)Nc1ccccc1,inactive: 90%
15,Cc1cc(OCC(=O)NCCc2nc3ccccc3[nH]2)cc(C)c1Cl,active: 44%
16,Cc1ccc(CNC(=O)Cn2c(SCC(=O)Nc3ccc(F)cc3)nc3ccccc32)cc1,inactive: 126%
17,O=C(CSc1nc(=O)n(Cc2ccco2)c2c1CCC2)NCc1ccccc1,inactive: 89%
18,Clc1ccccc1OCCSc1nnc(-c2cccs2)o1,inactive: 43%
19,CCc1ccc2oc(-c3ccc(C)c(NC(=O)/C=C/c4ccco4)c3)nc2c1,inactive: 83%
20,Cc1ccc2nc(/C(C#N)=C/c3ccccc3F)[nH]c2c1,active: 31%
21,Cc1cccc(OCCSc2nnc(-c3cccs3)o2)c1,inactive: 58%
22,Cc1sc2ncn(CC(=O)N3CCN(c4ccccc4F)CC3)c(=O)c2c1S(=O)(=O)N1CCC(C)CC1,inactive: 74%
23,N#Cc1c(C(F)(F)F)cc(=O)n2c1[nH]c1ccccc12,active: 37%

row,SMILES,survival
1,COc1ccc(N2CCN(C(=O)CSc3nnc4c5ccccc5n(CC(=O)O)c4n3)CC2)cc1,inactive: 101%
2,CCOc1ccc(CCNC(=O)C2CCCN(S(=O)(=O)N(C)c3ccc(F)cc3)C2)cc1 (stereo unspecified),inactive: 77%
3,CCS(=O)(=O)N1CCc2cc(C(=O)NCc3ccccc3OC)ccc21,active: 40%
4,COc1ccc(C(=O)NCC(C)C)c(OC)c1,inactive: 103%
5,Cc1ccccc1-c1nc2scc(CCNC(=O)c3ccco3)n2n1,inactive: 71%
6,CCn1cc(CNC(=O)c2cc(-c3ccc(C)cc3)nc3ccc(Br)cc23)c(C)n1,active: 40%
7,COc1cccc(NC(=O)C2CCC(CNS(=O)(=O)c3ccc4c(c3)CCCC(=O)N4)CC2)c1 (stereo unspecified),inactive: 79%
8,C1CCC(N2CCN(C3CCCC3)CC2)C1,inactive: 76%
9,COc1cccc(NC(=O)C2CCN(c3ccc(Sc4ccc(C)cc4)nn3)CC2)c1,inactive: 49%
10,Cc1nnc(SCC(=O)N(C2CCCCC2)C2CCCCC2)[nH]c1=O,inactive: 114%
11,O=C(NCc1ccccc1)C(=O)Nc1c2c(nn1-c1ccc(F)cc1)CSC2,inactive: 84%
12,CCOc1ccc(CCNC(=O)c2cc3c(-c4ccccc4F)nn(C)c3s2)cc1,inactive: 64%
13,CCc1ccc(CNC(=O)CCCn2ccc3cc(S(=O)(=O)N4CCCC4)ccc32)cc1,inactive: 91%
14,CCC(Cn1nnc2ccccc2c1=O)NC(=O)Nc1ccccc1OC (stereo unspecified),inactive: 79%
15,Cc1ccc(S(=O)(=O)c2nc(-c3ccc(F)cc3)oc2SCC(=O)NC2CCCCC2)cc1,inactive: 149%
16,COc1ccc(Cl)cc1-n1cc(-c2ccccc2)nc1SCC(=O)Nc1ccc(C)cc1,inactive: 86%
17,O=C(NC1CCCC1)c1ccc2c(=O)n(Cc3ccccc3)c(SCc3ccccc3F)nc2c1,active: 0%
18,COc1ccccc1CNC(=O)C1CCN(c2nc3ccc(C)cc3[nH]2)CC1,inactive: 100%
19,COc1ccccc1C1NC(=O)c2n[nH]c(-c3cccs3)c21 (stereo unspecified),inactive: 65%
20,CC1CCN(C(=O)c2c(NC(=O)c3ccccc3Cl)sc3c2CCC(C(C)(C)C)C3)CC1 (stereo unspecified),active: 10%
21,Cc1cc2nc(-c3ccc(OCc4ccccc4C)cc3)cc(C(F)(F)F)n2n1,active: 13%
22,COc1cc(C2CC(=O)N(Cc3cccc(F)c3)c3ccccc3S2)cc(OC)c1OC (stereo unspecified),inactive: 103%
